Measurements published in PubChem BioAssay AID588342 (National Center for Advancing Translational Sciences (NCATS), 2011).
Hit rate of the full screen: of about 360,000 compounds, about 25,000 (6.9%) were called active. Inconclusive results, whose numbers are uncertain, are shown with a selection of clear calls. Calls follow the shape of the dose curve; as a rule, active = well fitted inhibition curve with a large enough effect; inconclusive = small, poorly fitted or top-dose-only effect; inactive = flat fitted curve, though single readings scatter. Potencies beside an inconclusive call are fits to weak or partial responses and may not hold up.

Molecular target: Luciferin 4-monooxygenase (Photinus pyralis) (UniProt P08659)
Assay: qHTS profiling assay for firefly luciferase inhibitor/activator using purifed enzyme and Km concentrations of substrates (counterscreen for miR-21 project); also: nearly all actives have a fitted effect of over 55% in size;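 as to activity change, negative = inhibition: plate controls were vehicle for no effect and reference inhibitor for full effect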
Settings: purified FLuc, luminescence inhibition; activity change, negative = inhibition: at 57.5 µM (top of the series)
Procedure, shortened: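 Purified P. pyralis luciferase, 10 nM final, with Km-level 10 uM D-luciferin and 10 uM ATP in 50 mM Tris acetate pH 7.5, 10 mM Mg acetate, 0.01% Tween-20, 0.05% BSA; 6-point qHTS titration about 60 µM downward; luminescence read.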
Potency is read from the fitted curve at half-maximal effect; tags tell the direction and shape of the fitted curve.

Sequence of UniProt P08659 (P08659 whole entry, looked up): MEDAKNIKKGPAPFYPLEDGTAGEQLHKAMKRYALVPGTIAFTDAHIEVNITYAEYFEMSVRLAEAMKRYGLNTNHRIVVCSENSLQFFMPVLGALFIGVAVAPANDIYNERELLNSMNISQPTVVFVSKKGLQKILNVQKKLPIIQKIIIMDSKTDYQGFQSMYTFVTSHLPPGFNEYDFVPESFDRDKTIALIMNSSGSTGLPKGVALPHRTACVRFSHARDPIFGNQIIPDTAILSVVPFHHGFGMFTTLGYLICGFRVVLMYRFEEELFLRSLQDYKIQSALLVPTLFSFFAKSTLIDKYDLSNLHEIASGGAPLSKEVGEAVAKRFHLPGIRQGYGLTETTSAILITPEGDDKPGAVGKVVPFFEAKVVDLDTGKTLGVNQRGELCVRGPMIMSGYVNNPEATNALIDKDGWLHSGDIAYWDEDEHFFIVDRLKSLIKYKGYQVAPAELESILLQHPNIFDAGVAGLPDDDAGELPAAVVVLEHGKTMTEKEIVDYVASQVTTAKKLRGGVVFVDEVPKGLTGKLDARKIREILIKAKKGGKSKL

Row | SMILES | Potency | activity change, negative = inhibition
1 | Cc1cccc(C=Nc2ccc3c4c(cccc24)CC3)c1O | inconclusive: 15.1 µM [inhibitor, partial curve] | –
2 | COc1cccc(NC(=O)c2ncn[nH]2)c1 | inconclusive: 37.9 µM [inhibitor, partial curve, poor fit] | –
3 | Cn1nc(-c2ccc(Cl)cc2)cc1NC(=O)CC(C)(C)CC(=O)O | inconclusive: 37.9 µM [inhibitor, partial curve, poor fit] | –
4 | Cc1ccc2c(c1)COc1c3ccc(C(=O)N4CCCCC4)cc3nn1-2 | active: 3.79 µM | –
5 | Cc1ccc(OCC(=O)N/N=C\c2cn(C)c3ccccc23)c([N+](=O)[O-])c1 | inconclusive: 15.1 µM [inhibitor, partial curve] | –
6 | Clc1ccc(-n2ncc3c(NCC4CCCO4)ncnc32)cc1 (stereo not drawn) | active: 1.69 µM | –
7 | Cc1cccc(N2CCN(C(=O)CN3C(=O)C4CC=CCC4C3=O)CC2)c1C (stereo not drawn) | active: 16.9 µM | –
8 | CCN1CCN(c2ccc(NC(=O)c3cccc(F)c3)cc2Cl)CC1 | active: 16.9 µM | –
9 | CC1CCN(C(=O)CSc2nnc3c(n2)[nH]c2ccc(F)cc23)CC1 | – | inactive: -0.642%
10 | Cc1cccc(NC(=O)CN2C(=O)CC(c3ccccc3)Sc3ccccc32)c1 (stereo not drawn) | – | inactive: -5.57%
11 | Cc1nn(Cc2ccc(F)cc2)c(Cl)c1/C=N/NC(=O)c1cccnc1 | inconclusive: 37.9 µM [inhibitor, partial curve, poor fit] | –
12 | Cc1ccccc1Nc1nnc(SCC(=O)NCc2ccco2)s1 | – | inactive: 3.39%
13 | CC(C)CC(=O)NC(=S)Nc1cccc(NC(=O)c2ccccc2)c1 | inconclusive: 21.3 µM [inhibitor, partial curve, poor fit] | –
14 | O=C(c1cnn2c(C(F)(F)F)cc(-c3ccccc3)nc12)N1CCCCC1c1cccnc1 (stereo not drawn) | – | inactive: -1.15%
15 | O=C(NCc1cccnc1)c1cc(-c2ccccc2)on1 | inconclusive: 23.9 µM [inhibitor, partial curve] | –
16 | Cc1ccc(Cl)cc1NC(=O)CON=C(N)c1ccccc1 | – | inactive: -0.391%
17 | O=C(Nc1cccc(O)c1)c1cc(-c2ccccc2F)no1 | – | inactive: 1.46%
18 | COc1ccc(NC(=O)CN2C(=O)CSC(C)C2=O)cc1 (stereo not drawn) | inconclusive: 37.9 µM [inhibitor, partial curve, poor fit] | –
19 | CC(CNC(=O)c1csc2c1CCCCC2)c1ccccc1 (stereo not drawn) | active: 15.1 µM | –
20 | COc1ccc(/C=C2/C(=O)N(c3ccccc3)N=C2C)cc1Br | active: 13.5 µM | –
21 | CC(C)C(=O)Nc1cccc(NC(=S)NC(=O)c2ccc(Cl)cc2)c1 | inconclusive: 10.7 µM [inhibitor, partial curve] | –
22 | O=C(CSc1ccccc1)NC1CCCCCC1 | inconclusive: 26.9 µM [inhibitor, single point] | –
23 | CN1CCN(c2c(/C=N/O)c3ccccc3n2C)CC1 | inconclusive: 26.9 µM [inhibitor, single point] | –
24 | Cc1ccccc1OCCn1c(S(=O)(=O)O)nc2c(N)ncnc21 | inconclusive: 21.3 µM [inhibitor, partial curve, poor fit] | –

Row | SMILES | Potency | activity change, negative = inhibition
25 | Cc1c(C(=O)NC2CCOC2)oc2c(F)cccc12 (stereo not drawn) | active: 10.7 µM | –
26 | Cc1ccc2nc(NC(=O)CN3CCN(c4ccccn4)CC3)sc2c1 | – | inactive: -9.33%
27 | CCOc1ccc(-c2cc(CCCC(=O)NCCc3ccc(OC)c(OC)c3)no2)cc1 | active: 10.7 µM | –
28 | Cc1cc(C(=O)CN2C(=O)NC3(CCCc4sccc43)C2=O)c(C)n1-c1ccccc1 (stereo not drawn) | active: 16.9 µM | –
29 | Oc1cccc(Nc2cc(-c3ccccc3)ncn2)c1 | active: 16.9 µM | –
30 | Cc1ccsc1/C=N/n1c(-c2cc(-c3ccccc3)n[nH]2)n[nH]c1=S | inconclusive: 23.9 µM [inhibitor, partial curve, poor fit] | –
31 | COc1ccc2cc(C(=O)O)ccc2c1 | inconclusive: 26.9 µM [inhibitor, partial curve, poor fit] | –
32 | CCOC(=O)C(=O)Nc1ccc(Oc2ccccc2)cc1 | active: 15.1 µM | –
33 | O=C(O)COc1ccccc1C1Nc2ccccc2-c2nnc(SCc3ccc(Cl)cc3)nc2O1 (stereo not drawn) | inconclusive: 23.9 µM [inhibitor, partial curve] | –
34 | COc1ccc(/C(C)=N/N2CCCCC2)c(O)c1 | active: 9.53 µM | –
35 | Cn1c(=O)c2c(n(Cc3ccccc3)c1=O)NC(=O)C2CC(=O)N1CCc2ccccc2C1 (stereo not drawn) | – | inactive: 0.136%
36 | COc1ccc(/C=N/N=C2/NC(=O)C(CC(=O)O)S2)cc1OS(=O)(=O)c1ccccc1 (stereo not drawn) | inconclusive: 21.3 µM [inhibitor, partial curve, poor fit] | –
37 | COc1ccc(NC(=O)c2ccco2)cc1NC(=O)c1cccc(OC(C)C)c1 | inconclusive: 16.9 µM [inhibitor, partial curve] | –
38 | O=C(N/N=C/c1ccc2c(c1)OCO2)c1ccc(Cl)cc1Cl | inconclusive: 26.9 µM [inhibitor, single point] | –
39 | COc1ccc(-c2cc(-c3ccc4c(c3)NC(=O)CO4)nc3c2COc2ccc(C)cc2-3)cc1 | inconclusive: 37.9 µM [inhibitor, single point] | –
40 | Cc1sc(NC(=O)c2sc3nc4c(C)cccc4cc3c2N)c(C#N)c1C | active: 0.536 µM | –
41 | COc1ccccc1/C=N/NC(=O)c1nnn(-c2nonc2N)c1-c1cccs1 | inconclusive: 42.6 µM [inhibitor, partial curve, poor fit] | –
42 | CC1(C)CC(=O)C2=C(C1)c1c(ccc3ccccc13)NC2c1cc([N+](=O)[O-])cc([N+](=O)[O-])c1O (stereo not drawn) | inconclusive: 19 µM [inhibitor, partial curve] | –
43 | COC(=O)Cn1ccc2cc(S(=O)(=O)N3CCCCC3)ccc21 | inactive | –
44 | N#Cc1ccc(/C=C\c2nccc3c2[nH]c2ccccc23)cc1 | inconclusive: 2.39 µM [inhibitor, full curve] | –
45 | CN(C)NC(=S)Nc1cccc(Cl)c1 | – | inactive: -1.92%
46 | COc1cccc(COc2cc3ccccc3nc2C)c1 | active: 19 µM | –
47 | CCOC(=O)c1ccccc1NC(=O)c1nn(-c2ccc(C)cc2)c(=O)n(C)c1=O | – | inactive: 0.182%
48 | COc1ccc(OCC(=O)C2CC2)c(C#N)c1 | inconclusive: 26.9 µM [inhibitor, partial curve, poor fit] | –
